Source: the RNAGym collection of RNA variant scans (doi:10.7554/elife.90254)
Read counts are not given, so values of variants with three or more changes are uncertain.

B1: LINE1-full (parent)
chain: UACGUAGGUGGUUUUCCCCUGAUAGUGCUAAGGGGGCCUGGAAGUUUGGACUGGGCAGAGCUCAACACAGCGUGGCAAAGUGGCUGUGGCUAGACUGCCUCUCUGGAUUCCUCGUCACUCAGCAGGGCAUCUCUGAGAGAAAUGCC

Variants of: B1
Assay: self-cleavage, relative activity (ratio to wild type); higher = more cleavage; in vitro, sequencing; the parent is a self-cleaving ribozyme

Variant | self-cleavage
A57G A64U A78U U87A | 0.07
C56U A57U A64G U100C | 0.21
G54C U100A A121G | 0.69
A57G A59G A77G A141G | 0
U52C A142G U143A | 1.79
U52A U119A U134A | 1.24
U52C A69U A107G | 0
C51U U108C U115A | 1.13
A50U A65G U73G U81A G122A | 0.03
A50G G125A A142G | 0.36
A50G A69G C120A | 0.22
U52G G93C A138U A142G | 0
G48A U132C A136G | 1.6
U52C A65G U85C | 0
G49A U91C A107U A138G | 0.34
G48U A77G A79G | 0.35
U52C U85A A129G | 0.14
C56U U87A U100A U134A | 0.03
G54U A77G A129G | 0.49
G54A A65G U134C | 0.08
C51U U62C G86A | 0.05
C56A U134C A140U | 0.02
C51U A57G A129C G144A | 1.57
G49A U62C U87C | 0.08

Variant | self-cleavage
A50G A79G C123U A129G U130C | 1.53
U52C G82A U100A U130C | 0.92
U52A U132C U134G | 1.53
U52C U109A U132C | 1.69
U52A U96C G125C | 0.15
A50G U73A U96C | 0.5
A50G A94G U109A A142G | 0
G48A U62C U87G | 0.03
U52A A65C A67G G75C | 0.17
U52A U96A U102C U115C U119A | 0
G49A U132A A141G | 1.08
A50G A64U U119A | 0.61
A57C U87A U100C U143A | 0
U52C A59U A77G | 1.06
G53C C110A U132C | 1
U52A A67G G72U | 0.3
C51A U62C A64U C95U | 0
U52A A57C C101U A117G A138G G139U | 0.05
C56U A67G A141G | 0.06
A50G A64G A69G | 0
A50G G54A U85A A124U | 0.08
A50G U96A G114A | 0.05
G49U A64U U73A | 0.27
C56U U87C U96C | 0.28

Variant | self-cleavage
U52A A107U U119A | 0.78
A50U U73C U112C G125U A141G | 1.98
A50G A79G U130C | 1.67
G55A A59G U91C | 0.02
G49A G54A G114C | 0.41
G49A C56U U96C G97U U130C | 0
A50U A67G U100A U134A | 0
C56U A57C U62A A67C U119C | 0.09
U52A A67U A78G | 0.08
U52A U130C A142C | 0.96
G54A U73C A129G | 1.22
A57G A67C A140U | 0.13
G49A C63U C98U | 0.1
A50U U52A G72A C111U A136G | 1.17
U52A A65G G74A | 0.05
G55U A124G A141G | 0.08
U52C A65G A124U | 0
A57C C90A U119C | 0
U52A G82A A124G | 1.98
A50U U112C A141G | 0.73
G53A C84U A136U | 0.09
C56U A77G U87A U104C | 0.03
G48A U132A A138U | 1.32
G53A U115C G144A | 1.35

Variant | self-cleavage
U52A U62C C146U | 0.06
A50G C120U U132C | 1.04
G54A G80A U85C U104C A140G | 0
G48C A67G A79G U96A U132C | 0.13
G55A U81C A136G | 0.5
U52G U109C A138U | 0.77
U52A U87C C120U A142G | 0.22
A50G U73A A117U A124U | 0.41
G49A C66G U130C A140G | 0.05
A50G U73A C95A | 0.02
A50U A67G U132C | 0.19
A50G U52A A65G A136U | 0.13
C56U A79G C103A | 0
A57C A94C A121U | 0
U52C G86A U100C A129G | 0.13
A57C U62A U100A U109C U132C | 0
U52C C90U U108C | 0.17
A50G A94U A117G | 0
C56U A77C A78G U91A | 0.12
A50U G127A U130C | 1.16
A50G A69G C120U A124C A136U | 1.84
U52C A117G U119A U143A | 0
U52A U73A C76U U100A | 2.74
G48A G58U A69C | 0.02

Variant | self-cleavage
U52C U73A A121U | 0.36
U52A U108C A140U | 1.89
U52A A65G U96C | 0.07
G54A U62C U104A | 0.04
G49A U87C A140G | 0
G55A A77U U87C A117U A141G | 0.04
G54A U85A U132C | 0.05
A50G A124G A142U | 0.41
A50G U96C A124U U132C A141G | 0
A57G A65G A136G | 0
U52A A64G A78G A107U | 0.51
C56U G74A A79G U108C | 0.17
U52C A67U G75A A79U A92G U119A | 0.05
G49A A50G A64C G83C U100C U115C A136U A138G A142U | 0
A50G A57G U81C | 1.31
U52A C68U C113A U130C | 0.19
A50G U91C U96C C113U A129G | 0
G53A U104A U112C U134A A141G | 1.86
C56U A78G A124G | 0.13
C56U A57U U104C U132A | 0.06
U52G A92U U115C A129U | 0
U52C C61U C103U | 0.04
U52C A67C A138C | 0
A50U A78G U104C A129U C133U A142G | 1.68

Variant | self-cleavage
A57G A67G U115C | 0
G53A A67G U87A U108C A138U | 0.08
A50G A64G A141G | 0.41
G53A U81A U119C | 2.67
A50G U62C A121U A138G C146U | 0
C56A C101A A124G | 0.02
C51A U87C A107G | 0
A50G A77G A121U | 2
G49A A57U A67G A136G | 0.11
A50G A94U U132C A140G | 0.28
A57G A69G U112C G127U A140U | 0.31
A50G U108C C133U | 2.63
U52C A57U A79G | 0.24
G49A U52C A129G | 0.66
C56U A57C A65G G122U U132C | 0.09
C51U U102C U132C | 1.48
A50U A77G A94G U96A U119A | 0.06
G48A U91C U132C | 0.46
G53A U73C U115A A141G | 1.92
U52C U96A A138G | 0
G55A A69G U91C U132C | 0.05
A50C A136G A142G | 0.94
C51A U87G U112C U119C | 0.13
A50U U73A A78G U132C | 0.19

Variant | self-cleavage
A50C A67U G114A A121G | 0.05
A50G U62C U104C A138G | 0
U52A A64G U115A | 0.12
G48A U96A U130A | 0.06
G48A U52C A64G | 0.2
U52C A64U A77U A136G | 0.17
A57G A65G U108A | 0.13
U52C A59G A65G A69U C76U U87C U119A | 0
G55C U73A U100C | 0.03
A50U A69C U109A A124C | 0
A50G A69G U102C A142C | 0
U52G U62C A124G | 0
U52C A107G A142G | 2.51
G53A A67U U130C | 0.13
A50G U96C A129G A142G | 0
G49A U130C A138U | 0.76
G48A U115C A140G U143A | 1.63
C56U C110U A136G | 0.27
U52A U62C U91C U108C C110A | 0.09
G54A U85C A92U C99U | 0.11
A50G U100C U104A U143C | 1.49
U52C A59G U85C | 0
U52C U62C A78U U102C | 0.09
